First the molecules themselves.
B1: CPEB3 Ribozyme (parent)
chain: UAACAGGGGGCCACAGCAGAAGCGUUCACGUCGCAGCCCCUGUCAGAUUCUGGUGAAUCUGCGAAUUCUGCUGUAUAUCUC

The source gives no read counts; variants with many changes may rest on few reads.

The variants in this data set derive from B1. Put plainly: self-cleavage, relative activity (ratio to wild type); higher = more cleavage; in vitro, sequencing. Summed up:
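Barcoded CPEB3 ribozyme mutants, produced by rounds of error-prone PCR, self-cleaved while being transcribed with T7 RNA polymerase for 5 hours at 37°C and during a subsequent 15 min DNase I step before EDTA was added. Sequencing of template-switched cDNA on Illumina gave cleaved and total reads, and DNA sequencing assigned barcodes to variants. Each variant's relative activity is its cleaved/total read fraction divided by the unmutated ribozyme's fraction, averaged across three batches. A variant needed a minimum of 5 reads.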
As for A3G C12A A18U U54C A57G U58A U80C, the self-cleavage came out at 0.14.

In the case of A3G A47G U69C, the self-cleavage was determined as 0.6. A3G A15G U25C C39G U80A: the self-cleavage stood at 0.06. As for A3G A18G A45G, the figure is 0.33; as for A3G A56G U58G, 0.3. A3G A35C U54C: the self-cleavage was determined as 0.96. On to A3G A35G C44U U80C, for which the self-cleavage turned out to be 1.19. The figure for A3G A15G U49A A57U G73C A77G is 0.97; for A3G A15G A18G U43A it is 0.19. As for A3G C4U U49A A57G, the figure is 0.55; as for A3G A18U U43C U58A, 0.17; as for A3G A18U A45G U60A, 0.19. Regarding A3G A45U G61A C62A, the self-cleavage is 0.13. As for A3G C11U U25A U74C, the figure is 0.53; as for A3G A18U A35G U49C C68A, 0.32; as for A3G A28G C34G G55U, 0.42. Consider A3G A18G A35G U43A, for which the self-cleavage is 0.84.

With A3G A15C A35U A47G U72C, the self-cleavage worked out at 0.5. As for A3G A18U U41A, the figure is 0.12; as for A3G A21G U31A A47G U58C, 0.19; as for A3G A21G U51A U58C, 0.18. As for A3G A20G G36U C40U U54C U58C, the figure is 0.07; as for A3G A28G A57G U60C, 0.06; as for A3G A13U U31C A56G U58C U78C, 0.48.

With A3G A28U U41A G63A, the self-cleavage amounted to 0.16. For the variant A3G A20G U41A U54C U60A U69C U72C, the self-cleavage was 0. The figure for A3G A15U A75G is 0.7; for A3G A28U A57G A64U U72A it is 0.22; for A3G A18G U48C U51C it is 0.35. The figure for A3G A20G U66G A75G U80C is 0.25. As for A3G A21G C29U A35U C38U U58C, the figure is 0.12; as for A3G A20C A28U A64U, 0.12. Turning to A3G A15G G30A A45U U49A U51A, the self-cleavage was 0.11. As for A3G A15G C32U U72C U74C U78A, the figure is 0.63; as for A3G A21G U31C A45U A64G U69C U72C, 0. The figure for A3G A15U U41C C50A G63U is 0.77. The figure for A3G A35G U41C U72C is 1.24; for A3G A28U U49C U67C it is 0.11. With A3G A15G U54C, the self-cleavage is 1.01. The figure for A3G A21G U25G A64U is 0.15; for A3G A15U A18U C38A it is 0.36; for A3G A13U C17A A35G it is 0.86. The figure for A3G A21G A35U U43A is 0.18.

Turning to A3G A21G A45G U49C U54A U76C, the self-cleavage was 0.08.

As for A3G A21G A28G U49C U51C U54C, the self-cleavage stood at 0.64. Turning to A3G A15G A65G U66C, the self-cleavage amounted to 0.62.

Consider A3G C11G U25C U31A, for which the self-cleavage is 0.07.

As to A3G A15G U25C A28G A35G U60C, the self-cleavage was 0.32.

For A3G A21G A28G U41A A56G C62A, the self-cleavage is 0.38. In the case of A3G A20G A45G A47G A77G, the self-cleavage worked out at 0.31. Consider A3G A18G G22A U25C U74A, for which the self-cleavage came to 0.64. The figure for A3G A18G U26C U43C A45U is 0; for A3G A20U A21C A35U U49C A57U U67A it is 0.17. The figure for A3G A21G U25C U31C A64G is 0.13; for A3G A18G U41C U49C it is 0.49.

Turning to A3G C11G G16U A28G U48C, the self-cleavage came to 0.27. As for A3G A45C U54C U58C U80C, the figure is 0.28; as for A3G A21G U41C U58G, 0.12; as for A3G A35G U41A, 0.28. With A3G A15G A45U A64U U69A G73A, the self-cleavage was found to be 0.13. On to A3G A18U A45G U49C U69C U80A, for which the self-cleavage was 0.4.

Take A3G A15G A35U: the self-cleavage is 0.51. Take A3G A20G A45G U54G: the self-cleavage is 0.51. As for A3G A21U U26C A65G C79A, the figure is 0.06. As for A3G A75G U80C, the figure is 0.78.

Consider A3G A13U A77C, for which the self-cleavage was 0.75. As for A3G A15G A18G U41C U67A, the figure is 0.24; as for A3G A13U U31C A45G U49C U60C, 0.33; as for A3G A15G A20G U25A G55U, 0.69. As for A3G A15G C79A, the figure is 0.99; as for A3G A13U U31A U69C, 0.3.

Consider A3G C4U A28G A35U, for which the self-cleavage came out at 0.68. The figure for A3G A18G G22U U43A U51C A64C U76A is 0.2. In the case of A3G A18G A28G A35U, the self-cleavage stood at 0.4. As for A3G C4U A64G U72C, the figure is 1.13. The figure for A3G A15G U67C is 0.41; for A3G A20G U41A U69C U78C it is 0.07; for A3G A15G U26A A45C U60A U72C it is 0.56. The figure for A3G A13U A45C U74C A75G is 0.55; for A3G A15G A64C A65G U67C A77G it is 0.29; for A3G A28G A47U A65G it is 0.06. Take A3G A18U U25C U31C C32U C38G U41C: the self-cleavage was determined as 0.09. As for A3G A20G U43C G52A G63A U72A, the figure is 0.12.

For A3G A15U A18G U69C, the self-cleavage came out at 0.99.

For the variant A3G A18G C39A U76C, the self-cleavage was 0.49.

Take A3G A21G C27U A28U G33U A56G: the self-cleavage was 0.29.

With A3G A18G A21G U31C U51A U78C, the self-cleavage was determined as 0.47. Take A3G A15U A64U U72C U76A: the self-cleavage amounted to 0.43. As for A3G A21G A35G U76C, the figure is 1.17; as for A3G A28G G36A U67A U78A, 0.2. The figure for A3G A18G U43C U48A A77U is 0.3.

Take A3G A28G U51C U76C: the self-cleavage was 0.54. A3G A15U U43C: the self-cleavage was 0.27. As for A3G A18G U26C U74C, the figure is 0.59.

For the variant A3G A18G G19C, the self-cleavage amounted to 0.48. The figure for A3G C12G A56U is 0.49; for A3G A35G U54G it is 1.28; for A3G A56G A57G it is 0.44. The figure for A3G C11A A18C A20G A47G U60C is 0.07; for A3G C11G U25C it is 0.39. The figure for A3G A28G G30A is 0.38; for A3G A20G U48C U51C it is 0.62. As to A3G A35U U67C U78C, the self-cleavage came out at 0.14. As for A3G A18G A21U U67A, the figure is 0.37. As for A3G A15G G30A A64U U74A, the figure is 0.12; as for A3G A15G A28G A47G A64G U80C, 0.64; as for A3G A13U U49A U74A, 1.05.

In the case of A3G C12A A45U U49C U66C, the self-cleavage worked out at 0.24.

Take A3G C12U A15G A20G U49C U69C: the self-cleavage was determined as 0.17. The figure for A3G A13U G46U U49A is 0.1. As for A3G A28U A35G U54C A64G U72C A77G, the self-cleavage came to 1.24. For the variant A3G A28G A35U U60C, the self-cleavage was determined as 0.23. As for A3G A28U U41C U67G, the figure is 0.19; as for A3G A21G U25C U41C U54C, 0; as for A3G A20G U48A U60A U66C U80A, 0.16. As to A3G C4U A45G, the self-cleavage turned out to be 1.06.

Take A3G A13U U49C U51C U60A U69C: the self-cleavage was determined as 0.16. As for A3G A20G A35U, the figure is 0.69; as for A3G A20G U25C U69A C71U U74C, 0.12.

A3G A15G U54C G73A U80C: the self-cleavage is 1.25. As for A3G A18G U43A, the figure is 0.63. The figure for A3G A20G U25G A45G G70A U78C is 0.09. As for A3G A20G C23U U25C C39U U41C A56U, the figure is 0.06.

For A3G C4U A20U A45C, the self-cleavage turned out to be 0.39.

In the case of A3G C11U U66C U80C, the self-cleavage was determined as 0.12.

For the variant A3G A20G A64G A65G U67C, the self-cleavage turned out to be 0.21. As for A3G C12U C44A U60C, the figure is 0.56; as for A3G C4U U31G A45U U54A U60C, 0.29; as for A3G A28G A35G A56U, 0.96. The figure for A3G A18U G36A U80C is 0.45; for A3G A15U A35G U66C it is 0.97. As for A3G A13U C32A U41C, the self-cleavage came out at 0.4. The figure for A3G A13U U74C is 1.16; for A3G A56G U72C it is 0.89.

A3G C11G U25C A28U U60C U78C: the self-cleavage turned out to be 0.08. The figure for A3G A15U A18G U43A A57G C62U is 0.07; for A3G A20U U25A C34U C37U it is 0.09. Regarding A3G A45G A77G, the self-cleavage was 0.97. As for A3G C11A U31C U80C, the figure is 0.59.

A3G A45U G63A: the self-cleavage came to 0.19. As for A3G A28C U69A, the self-cleavage came to 0.11. As for A3G A35G U54A A56G A64U, the figure is 1.11; as for A3G A28U C37A G46A A47U U76A, 0.05; as for A3G A28C C59U G61A U69C, 0.09. As for A3G C11U A15U, the figure is 0.43. For A3G A45G U60C G70C, the self-cleavage is 0.2. The figure for A3G A20U G46A is 0.35; for A3G A77U U80C it is 0.99; for A3G C11A A28U it is 0.57. The figure for A3G A56G A64U is 0.35; for A3G A18G A28G it is 0.5. Take A3G A20G U78C: the self-cleavage turned out to be 0.76. The figure for A3G A15G A18G U31A U66C is 0.14. The figure for A3G A15U A47G A75G is 0.48.

Turning to A3G A45C U58C, the self-cleavage was found to be 0.14. In the case of A3G A21U U66C A77G, the self-cleavage was determined as 0.1. Consider A3G A18G A77G C81A, for which the self-cleavage stood at 1.12. As for A3G A15U A64G U69A, the figure is 0.25. For A3G A15U A20G U25A U58C G73A, the self-cleavage is 0.43. As for A3G C12A G22A U31C U41A U78C U80C, the figure is 0.05; as for A3G A20U U54C, 0.12.

On to A3G A18C A35G U67C U72C U74A, for which the self-cleavage turned out to be 0.12.

Regarding A3G A20G C38U U41C, the self-cleavage came to 0.54.

A3G A20C A28G U69A: the self-cleavage is 0.32.

As for A3G A20G U49G, the self-cleavage stood at 0.36. Take A3G A35G U58C: the self-cleavage worked out at 1.15. As for A3G C11U A21U C39A U58C, the self-cleavage is 0.07.

Source of the values: the RNAGym collection of RNA variant scans (doi:10.1093/nar/gkz1192).
